# Measured values as given in PubChem BioAssay AID485344 (National Center for Advancing Translational Sciences (NCATS), 2010).
# The whole screen tested about 340,000 compounds, of which about 6,900 (2%) were called active. No stated cut-off is given here; in the data, active means inhibition above about 30%; inactive means below that, where a call was filed. This is a selection; strong and weak results do not stand in their true shares. Entries without a call were filed so in the source.
# Biological target: D(2) dopamine receptor (Homo sapiens) (UniProt P14416)
# Test: HTS Assay for Allosteric Antagonists of the Human D2 Dopamine Receptor: Primary Screen for Antagonists; further: 0% is about no effect
# Conditions: HEK293 TREx D2 cells, calcium flux, dopamine EC80; at 10 µM; stronger effect = higher value
# Method in brief: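 Calcium flux kinetic readout in an inducible HEK293 TREx D2 line plated overnight at 30 C. After 180 s compound exposure, an EC80 dopamine challenge follows with another 180 s kinetic read to detect antagonism.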
# UniProt P14416, sequence (P14416 whole entry, looked up): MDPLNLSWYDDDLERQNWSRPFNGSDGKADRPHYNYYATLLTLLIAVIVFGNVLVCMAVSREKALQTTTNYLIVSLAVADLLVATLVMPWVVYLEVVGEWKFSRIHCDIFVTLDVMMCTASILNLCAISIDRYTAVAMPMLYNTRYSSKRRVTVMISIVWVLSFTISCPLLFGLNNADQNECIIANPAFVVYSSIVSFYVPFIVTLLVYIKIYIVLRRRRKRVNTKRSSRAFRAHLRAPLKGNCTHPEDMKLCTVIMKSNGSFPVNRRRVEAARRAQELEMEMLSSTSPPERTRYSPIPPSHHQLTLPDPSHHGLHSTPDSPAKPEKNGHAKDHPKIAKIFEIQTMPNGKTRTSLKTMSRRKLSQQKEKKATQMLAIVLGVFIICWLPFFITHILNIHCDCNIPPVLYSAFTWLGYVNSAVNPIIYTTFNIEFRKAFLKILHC
row,Compound,inhibition
1,Cc1ccc(CN(C(=O)COc2ccc(Cl)cc2Cl)C2CCS(=O)(=O)C2)o1 (configuration not stated),9.51%
2,Cc1[nH]c(=O)[nH]c(=O)c1S(=O)(=O)N1CCN(c2cccc(Cl)c2)CC1,1.41%
3,CCN(CC)c1ccc(NC(=O)c2cc3c(=O)n4cccc(C)c4nc3n2C)c(C)c1,-25%
4,O=C(CSC1=Nc2ccccc2N=C(c2ccc(F)cc2)C1)NCc1ccc(Cl)cc1,9.5%
5,Cc1cc(S(=O)(=O)NCC(c2ccc(N(C)C)cc2)N2CCOCC2)ccc1F (configuration not stated),-3.18%
6,CC(=O)c1ccc(NC(=O)c2nc3ccccc3n(C)c2=O)cc1,11.6%
7,CCCCCNC(=O)CCn1c(=O)[nH]c2ccccc2c1=O,1.51%
8,COc1ccc(CNC(=O)C(=O)NCC(c2ccco2)S(=O)(=O)c2ccc(C)cc2)cc1 (configuration not stated),-8.01%
9,CCc1ccccc1OCCSc1nnc(-c2cc(OC)c(OC)c(OC)c2)o1,-1.17%
10,COc1cc2nc(Nc3ccc(F)cc3)nc(N)c2cc1OC,-21.7%
11,COC(=O)c1ccc(Cn2nnc3sc4c(c3c2=O)CCCC4)cc1,-0.701%
12,CCOC(=O)c1cccc(NC(=O)C(Cc2ccccc2)NS(=O)(=O)c2cccc3nsnc23)c1 (configuration not stated),1.88%
13,COc1ccc(NC(=O)CN(C)S(=O)(=O)c2cccc3nsnc23)cc1,4.86%
14,COc1ccc(Cl)cc1NC(=O)N1CCC(CN2CCCCCC2)CC1,-1.69%
15,Cc1ccc(C)c(Nc2nc3nonc3nc2Nc2cccc(C)c2C)c1,23.7%
16,CC(C)(C)c1ccccc1OCCCCCNCCO,active: 50.4%
17,CCc1ccccc1NC(=O)C(C)n1nc(-c2ccc(C)c(C)c2)ccc1=O (configuration not stated),-0.424%
18,O=C(C1CCN(S(=O)(=O)Cc2ccccc2)CC1)N1CCN(c2ccccc2F)CC1,-5.55%
19,COc1ccc(CNC(=O)CN2C(=O)CSc3ccc(S(=O)(=O)N4CCCC4)cc32)cc1,6.31%
20,CCCCNC(=O)CN1C(=O)COc2ccc(S(=O)(=O)N3CCCC3)cc21,4.61%
21,O=C(Nc1ccccc1OCc1cc(=O)n2ccccc2n1)c1ccccc1F,3.02%

row,Compound,inhibition
1,CSc1cccc(NC(=O)Cn2cnc(S(=O)(=O)N3CCCC3)c2)c1,-8.04%
2,CC1=C(C(=O)OCC2CCCCC2)C(c2ccc(Cl)cc2Cl)CC(=O)N1 (configuration not stated),10.7%
3,O=[N+]([O-])c1ccccc1OCC(O)CN1CCN(CC(O)COc2ccccc2[N+](=O)[O-])CC1 (configuration not stated),active: 92.4%
4,CCCn1c2ccccc2c2cnn(CC(=O)NCc3cc(OC)ccc3OC)c(=O)c21,5.11%
5,CC(NC(=O)c1ccc2nc(Cc3ccccc3)oc2c1)c1ccccc1 (configuration not stated),12.9%
6,COc1ccc(-c2cc(C(F)(F)F)nc(SCCC(=O)Nc3cccc(O)c3)n2)cc1,6.88%
7,CCc1noc(-c2ccc(N(C)Cc3ccc(OC)cc3)c([N+](=O)[O-])c2)n1,17.3%
8,CCOc1ccc(CCNC(=O)c2sc3ncccc3c2-n2c(C)ccc2C)cc1,-12.8%
9,Cc1cc(C(=O)N/N=C/c2cn[nH]c2-c2ccccc2)cs1,active: 30.3%
10,CCc1ccc(Nc2cc(C(=O)NCCCN(C)c3ccccc3)c3ccccc3n2)cc1,3.55%
11,COc1ccc(OC)c(NC(=O)N2CCC(N3CCN(Cc4ccc(F)cc4)C(=O)C3=O)CC2)c1,-2.14%
12,COc1ccc(NC(=O)Cn2cc(C(=O)C3CCCCC3)c3ccccc32)cc1,-1.58%
13,Cc1c(Cl)cccc1NC(=O)C(=O)NCC(c1cccnc1)N1CCN(c2ccccc2)CC1 (configuration not stated),-8.77%
14,CCCN(C(=O)c1sc2nc3n(c(=O)c2c1C)CCCC3)c1ccccc1C,8.52%
15,Cc1cccc(NC(=O)C2CCN(S(=O)(=O)c3ccc4c(c3)CCCC(=O)N4)CC2)c1,-2.74%
16,CCCNC(=O)C1CCC(Cn2c(=O)c3sccc3n(CC(=O)Nc3ccccc3C)c2=O)CC1 (configuration not stated),19%
17,O=C(O)CCc1ccc(-c2cccs2)n1CC(=O)Nc1ccccc1C(F)(F)F,11%
18,O=C(CSc1nc(-c2ccccc2)nc2c1CCCC2)c1ccc(Cl)cc1,18.2%
19,COc1ccc(Cn2ccc3nc(C)c(C(=O)N4CCN(c5cc(C)ccc5C)CC4)cc3c2=O)cc1,6.94%
20,CCc1cccc(C)c1NC(=O)C(CC)n1ncn2c(cc3cc(C)ccc32)c1=O (configuration not stated),0.744%
21,Cn1cc(C(F)(F)F)nc1-c1ccc(OCC(O)CNCCOc2ccc(O)c(C(N)=O)c2)cc1 (configuration not stated),active: 71.8%

row,Compound,inhibition
1,Cc1ccc(S(=O)(=O)c2nc(S(=O)(=O)c3ccc(C)cc3)c(NC(C)C)s2)cc1,12.6%
2,COc1cc(Nc2cc(C)nc3ncnn23)cc(OC)c1OC,active: 31.9%
3,CCOc1ccc(CNC(=O)c2cnc3sc(N4CCCCCC4)nn3c2=O)cc1OC,2.59%
4,Cc1ccc(C)c(NC(=O)Cn2c(=O)n(Cc3ccc4c(c3)OCO4)c(=O)c3ccc(C(=O)NC4CCCCC4)cc32)c1,12.3%
5,CC(C)Oc1ccc(C(=O)N2CC(=O)Nc3ccc(F)cc3C2c2ccc(F)cc2)cc1 (configuration not stated),-4.85%
6,CCOc1ccc(CNC(=O)CN2C(=O)C3CCCCN3c3ccc(C(=O)N4CCCC4)cc32)cc1 (configuration not stated),-5.59%
7,CCN1C(=O)c2ccccc2Sc2ccc(C(=O)NCCC(C)C)cc21,active: 43.8%
8,COc1ccccc1CNC(=O)c1cc2cc(C)ccc2n1C,11%
9,COc1cc(CNc2ccc3[nH]c(=O)[nH]c3c2)cc(Br)c1OCc1ccc(F)cc1,15.3%
10,CN(C)c1cccc(C(=O)N2CCC(c3ccncc3)CC2)c1,7.32%
11,COCCNc1ncnc2onc(-c3ccc(F)cc3)c12,2.97%
12,COc1ccc(OCCSc2nc3ccccc3n2CC(=O)N2CCOCC2)cc1,-19.1%
13,COc1ccc(NC(=O)CCCc2nnc3n(CCC(C)C)c(=O)c4sccc4n23)cc1Cl,1.9%
14,COc1ccc(/C=C/c2onc(C)c2S(=O)(=O)N2CCC(C(=O)N3CCCCC3)CC2)cc1,-17.2%
15,Cc1ccc(-n2c(SCCC(C)C)nc3sc4c(c3c2=O)CC(C)(C)OC4)cc1,-9.64%
16,CCOc1ccc(CNC(=O)C2CCN(C(=O)c3sccc3-n3cccc3)CC2)cc1,9.39%
17,COc1ccc(-c2cc(C(C)=O)c(C)n2CCC(=O)NC2CCCCC2)cc1,7.34%
18,O=C(CCN1CCCC1Cc1ccccc1)c1ccc2c(c1)OCCO2 (configuration not stated),active: 109%
19,COc1ccccc1CNC(=O)CN1C(=O)c2cccnc2Oc2ccccc21,-5.98%
20,Cc1ccc(-c2noc(CSc3nnc(C)n3-c3ccc(C)cc3)n2)cc1,1.05%
